Assay results reported in the supplement of paper PMC11417369.
± gives the standard deviation of the averaged measurements. This is one part of the list.

tested on: PfAP2-EXP AP2 domain (GST-tagged); test: gcPBM binding intensity (ln(normalized median fluorescence intensity)); higher = stronger DNA binding
In short: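 The highest Masliner-normalised natural-log median intensity across replicate spots of either probe orientation is reported as binding intensity. GST-tagged P. falciparum DNA-binding domains expressed in E. coli were applied for 1 h to an Agilent 4 × 180k array of primer-extended double-stranded 36-bp intergenic genomic probes plus negative controls, and bound protein was detected with Alexa488 anti-GST antibody and scanned at 488 nm.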

Sequence | gcPBM binding intensity (ln)
TATTTTTTTTTTTTTTTTTTTTTAAAACATATCAAT [CACACA_negctrl_site925] | 7.95 ± 0.64
TAAAAAAAAAAAAAAAGTACACACATACATATAAAT [XGTACX_site3752] | 8.61 ± 0.44
ACAATGTCATTTGCTAGTACGCATATTGGTTGTAAA [XGTACX_site8924] | 8.63 ± 0.38
ATTTTTTTTTTTTTATGTACATATAGGTGCAAATCA [XGTACX_site6748] | 9.09 ± 0.12
TAATTATATATATACACACACATACAGACAAATAAA [CACACA_site3412] | 9.04 ± 0.46
GAAATTTGTTATTGCACACAAATTTTTCTTTTTTTA [CACACA_site2339] | 8.49 ± 0.28
TCCTTTTTGAAATGTTGTACTTTTTTTATCTTTCAT [XGTACX_site953] | 8.73 ± 0.35
ATATTTATATATATCATACACACTAATATGTATATT [CACACA_site3409] | 8.35 ± 0.41
TACCATATTTCTTCAAGTACGCATTATGTTAAAAAG [XGTACX_site345] | 8.78 ± 0.37
TACATATATTTTTATACATGCATAACTTAGGACTTT [TGCATGCA_site113] | 8.64 ± 0.3
AAAATATTTTTATAATGTACATATAGTTGTATTTGT [XGTACX_site8724] | 8.8 ± 0.3
ATATATATTTAACAATGTACTTATTCAGAGAATAAT [XGTACX_site574] | 8.25 ± 0.33
ATTTTTATTCAGTTCACACACGCTTTAATATTATAT [CACACA_site3465] | 9 ± 0.49
CCCTTAATATAAAGCACACATATATATAATATATAT [CACACA_site4439] | 8.81 ± 0.26
AAGTTGAAATAATGTGCACACATTTTTTTTTTTTTT [CACACA_site3368] | 8.46 ± 0.21
ATTAATAAAAAATTTTAAAAAATAAATAAAATAAAA [TGCATGCA_negctrl_site113] | 7.99 ± 0.23
ATAATAAATAAAATAACACACATATATAAATATATA [CACACA_site170] | 8.4 ± 0.18
ATTATGTGTCCACATGTAAGCTATCTTACTTATATA [CACACA_negctrl_site1227] | 8.62 ± 0.28
ATAGTTACACAATGGTGTACAAGTCAATATATTTCT [XGTACX_site4614] | 8.34 ± 0.34
TACAAAAAAATAAAAAAAATTAAATAAATAAATATA [CACACA_negctrl_site45] | 8.17 ± 0.37
CATATTTGTGGACACACACACATATTTATATATATA [CACACA_site5887] | 8.885 ± 0.035
ACTAAAAAATATATATGTACATAATAATATATTATT [XGTACX_site1260] | 8.46 ± 0.3
ATTTATACTTATGTATGTACATATATACATATGTAT [XGTACX_site3979] | 8.52 ± 0.45
AAAAAAAAAAAAAAAAAAAACGAAAAACATCAAAGA [TGCATGCA_negctrl_site78] | 8.75 ± 0.11
